# Laboratory results reported in PubChem BioAssay AID485360 (National Center for Advancing Translational Sciences (NCATS), 2010).
# In all, about 230,000 compounds went through this assay and about 1,500 (0.65%) were called active. Inconclusive means that the source gave no clear call. Such entries were picked first, then a sample of the others. Calls come from the whole dose curve; as a rule, active = well fitted inhibition curve with a large enough effect; inconclusive = small, poorly fitted or top-dose-only effect; inactive = no such curve, though single readings can be large or run the other way. A potency beside an inconclusive call is a rough fit, not a confirmed value.
# Target: Lethal(3)malignant brain tumor-like protein 1 (Homo sapiens) (UniProt Q9Y468)
# Assay: qHTS Assay for the Inhibitors of L3MBTL1; note: nearly all actives have a fitted effect of over 60% in size
# Settings: AlphaScreen L3MBTL1–H3K9me1 peptide binding; activity, negative = inhibition: at 57.1 µM (top of the series)
# Excerpt: The histone code is comprised of many post-translational modifications that occur mainly in histone tail peptides. The identity and location of these marks are read by a variety of histone binding proteins that are emerging as important regulators of cellular differentiation and development and are increasingly being implicated in numerous disease states. Small molecule probes that disrupt the interaction between histone binding proteins and chromatin would enable a systematic chemical biology study of proteins that read the histone code and could potentially reveal new targets for drug discovery. However, no such small molecules are known. This dearth of quality molecular probes can largely be attributed to the novelty of the target class and the lack of screening assays. This proposal details the development of the first high-throughput screening assay for the discovery of inhibitors of methyl-lysine binding proteins and how it can be be used to initiate a full-scale discovery effort for antagonists of histone binding proteins. Specifically, this work focuses on an AlphaScreen(tm)-based HTS assay for Malignant Brain Tumor (MBT) domain-containing proteins, which bind to the lower methylation states of lysine residues present in histone tail peptides.
# To each well, 2 uL of L3MBTL1 protein (final 50 nM) and 1 uL biotinylated histone peptide monomethylated at Lys9 [b-AHA-H3(1-15)K9me1] (final 75 nM) was added using a nanoliter dispenser. Formation of a protein-peptide complex proceeded at room temperature for 30 min. A Kalypsys pin-tool was employed to transfer 23 nL of library compound solution in DMSO to each well. Cefsulodin, found in a pilot screen of the LOPAC library to be a weak inhibitor of L3MBTL1 binding, was used as an intraplate control with a 16-point titration in duplicate. Following a 30 min incubation of the protein-peptide complex with compounds at room temperature, a mixture of 40 ug/mL each streptavidin-coated donor and nickel chelate acceptor AlphaScreen beads (final 10 ug/mL) was added in a 1 uL dispense for a final volume of 4 uL. Plates were incubated, protected from the light for 30 min at room temperature. Microplates were then be read on an EnVision multilabel plate reader using the 1,536 plate HTS AlphaScreen aperture (excitation time 80 ms, measurement time 240 ms).
# % is set by controls: 0 for no effect and ±100 for the full control effect; potency is the fitted concentration of half-maximal effect; tags give direction and shape of the fitted curve.
# UniProt Q9Y468, sequence (Q9Y468 whole entry, looked up): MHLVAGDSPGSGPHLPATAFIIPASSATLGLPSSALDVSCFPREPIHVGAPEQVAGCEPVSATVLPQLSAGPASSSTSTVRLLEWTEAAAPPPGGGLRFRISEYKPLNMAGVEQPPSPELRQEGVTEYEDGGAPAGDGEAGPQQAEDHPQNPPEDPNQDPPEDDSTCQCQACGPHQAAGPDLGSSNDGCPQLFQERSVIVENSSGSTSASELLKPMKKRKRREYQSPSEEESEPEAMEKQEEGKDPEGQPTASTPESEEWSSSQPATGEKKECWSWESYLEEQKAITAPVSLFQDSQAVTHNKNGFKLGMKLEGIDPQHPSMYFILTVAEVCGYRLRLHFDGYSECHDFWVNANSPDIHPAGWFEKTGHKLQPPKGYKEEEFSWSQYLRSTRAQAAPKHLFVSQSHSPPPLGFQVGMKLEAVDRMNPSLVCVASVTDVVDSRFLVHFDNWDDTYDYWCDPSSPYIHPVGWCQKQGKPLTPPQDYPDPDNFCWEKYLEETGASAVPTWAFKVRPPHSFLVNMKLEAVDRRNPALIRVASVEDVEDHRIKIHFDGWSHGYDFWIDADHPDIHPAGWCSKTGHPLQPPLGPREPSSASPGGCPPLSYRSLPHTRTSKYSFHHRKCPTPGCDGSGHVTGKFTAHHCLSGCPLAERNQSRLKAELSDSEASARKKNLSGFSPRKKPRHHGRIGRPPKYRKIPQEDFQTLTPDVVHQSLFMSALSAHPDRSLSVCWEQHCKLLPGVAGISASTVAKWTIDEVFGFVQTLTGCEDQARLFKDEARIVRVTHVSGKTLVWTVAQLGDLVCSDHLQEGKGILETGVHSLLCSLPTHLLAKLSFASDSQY
Structure (SMILES),Potency,"activity, negative = inhibition"
COc1ccc(S(=O)(=O)N2CCc3ccccc32)cc1C(=O)NCc1ccco1,"inconclusive: 31.6 µM [inhibitor, single point]",–
S=C(Nc1cccnc1)NC1CCCC1,–,inactive: 8.11%
CC[n+]1c(/C=C/c2ccc(N(C)C)cc2)ccc2ccccc21,"inconclusive: 28.2 µM [inhibitor, partial curve, poor fit]",–
N=c1c2ccccc2nnn1-c1ccc(C(F)(F)F)cc1,"inconclusive: 0.631 µM [inhibitor, full curve, poor fit]",–
CC1CCC2(CC1)NC(=O)N(CC(=O)Nc1sc3c(c1C(N)=O)CCC3)C2=O (configuration not stated),active: 28.2 µM,–
O=C(N/N=C/c1cccc([N+](=O)[O-])c1O)c1cccs1,"inconclusive: 22.4 µM [inhibitor, single point]",–
COc1ccc(-n2c(=O)c3ccccc3c3ccccc3c2=O)cc1,–,inactive: -10.2%
Cc1nnc(SCc2cc(=O)oc3cc(O)ccc23)n1Cc1ccccc1,–,inactive: 2.52%
C/C(=N\Nc1ccc2nncn2n1)c1ccccn1,active: 25.1 µM,–
CCCn1c(/C=N/Nc2nc3ccccc3[nH]2)nc2ccccc21,"inconclusive: 4.47 µM [inhibitor, partial curve]",–
CCCSc1nnc(N2C(=O)CC(c3ccsc3)C3=C2CCCC3=O)s1 (configuration not stated),"inconclusive: 31.6 µM [inhibitor, single point]",–
O=C(Nc1ccccc1N1CCCC1)C1CCN(S(=O)(=O)c2ccccc2)CC1,–,inactive: -8.98%
Cc1ccc(C)c(-n2c(Cc3cccs3)n[nH]c2=S)c1,–,inactive: 2.37%
CN1CCN(C(=S)c2ccc(-c3cccc(Cl)c3Cl)o2)CC1,"inconclusive: 25.1 µM [inhibitor, single point]",–
COc1cc(C2CC(=O)Oc3c2c(=O)n(C)c2ccccc32)ccc1O (configuration not stated),"inconclusive: 35.5 µM [inhibitor, single point]",–
CCOc1ccccc1NC(=O)C1=C(C)NC(=S)NC1c1cccs1 (configuration not stated),–,inactive: 23.5%
Cc1noc(NS(=O)(=O)c2ccc(N/C=C\C(=O)c3ccc(F)cc3)cc2)c1C,–,inactive: -14.9%
Cc1ccn2c(=O)nc(SCC(=O)NCc3ccccc3)nc2c1,"inconclusive: 25.1 µM [inhibitor, single point]",–
COc1cccc(CC(=O)NNC(=O)CN(C)S(=O)(=O)c2ccc(C)cc2)c1,–,inactive: 2.86%
COc1ccc(CN(C(=O)CSc2nnc(-c3ccc(OC)c(OC)c3)o2)c2ccc(F)cc2)cc1,"inconclusive: 5.62 µM [inhibitor, single point]",–
COc1cccc(/C=N/NC(=O)Cn2nc(C)c([N+](=O)[O-])c2C)c1O,–,inactive: -5.08%
N#Cc1ccc(/C=C/C(=O)c2ccccc2)cc1,"inconclusive: 0.708 µM [inhibitor, single point]",–
CC(C)(C)OC(=O)NCCC(=O)N/N=C/c1cccc2cccnc12,"inconclusive: 31.6 µM [inhibitor, single point]",–
Cc1c(NC(=O)c2cc(-c3ccco3)on2)c(=O)n(-c2ccccc2)n1C,"inconclusive: 39.8 µM [inhibitor, single point]",–

Structure (SMILES),Potency,"activity, negative = inhibition"
CN(C)CCOc1ccc(-c2c(-c3ccsc3)sc3ccccc23)cc1,–,inactive: -22.9%
CN1/C(=C/C=N/NC(=O)c2ccc([N+](=O)[O-])cc2)C(C)(C)c2ccccc21,"inconclusive: 5.01 µM [inhibitor, full curve]",–
O=C(c1ccc(Cl)c([N+](=O)[O-])c1)N1CCN(c2ccccc2)CC1,"inconclusive: 7.08 µM [inhibitor, partial curve]",–
COc1ccc(S(=O)(=O)N2CCCN(CC(=O)Nc3ccc(OC)c(Cl)c3)CC2)cc1,–,inactive: -14.1%
COc1ccc(CCN2CC(C(=O)NCc3ccc(F)cc3)CC2=O)cc1OC (configuration not stated),"inconclusive: 28.2 µM [inhibitor, single point]",–
N=C1/C(=C\c2coc3ccc(O)cc3c2=O)C(=O)N=C2SC=CN12,"inconclusive: 25.1 µM [inhibitor, partial curve]",–
COc1ccc(C)cc1Nc1nc(-c2c[nH]c3ccccc23)cs1,–,inactive: -9.83%
O=C(Cc1ccc(-n2cccc2)cc1)NCc1cccs1,–,inactive: -9.25%
C[C@H](NC(=O)c1[nH]cnc1C(=O)Nc1nccs1)c1ccccc1,"inconclusive: 15.8 µM [inhibitor, partial curve]",–
CCCC1Nc2ccc(C(=O)O)cc2C2C=CCC12 (configuration not stated),active: 10 µM,–
O=C(NC(=S)Nc1cccc(S(=O)(=O)NC2=NCCC2)c1)c1cc(-c2ccco2)nc2ccccc12,"inconclusive: 25.1 µM [inhibitor, single point]",–
CC1CCCCN1CCn1c(=S)[nH]c2ncccc2c1=O (configuration not stated),–,inactive: -4.17%
COc1cc(C=O)ccc1OCCOCCOc1c(C)cc(Cl)cc1Cl,"inconclusive: 31.6 µM [inhibitor, single point]",–
BrC(/C=C\c1ccccc1)=N/Nc1nc(N2CCOCC2)nc(N2CCOCC2)n1,"inconclusive: 0.708 µM [inhibitor, single point]",–
O=C(CSc1nnc(Nc2ccccc2F)s1)NC(=O)CN1CCCC1=O,"inconclusive: 28.2 µM [inhibitor, single point]",–
CCC(=O)N[C@@H]1CC(C(C)(C)NC(=O)CC)CC=C1C (some centres not stated),–,inactive: -1.84%
COC(=O)C1=C(C)N(Cc2ccccc2)C(=O)/C1=C\c1ccco1,"inconclusive: 7.08 µM [inhibitor, partial curve]",–
CCOC(=O)c1c(-c2ccc(C)cc2)csc1NC(=O)C1CCCO1 (configuration not stated),–,inactive: 11.4%
O=[N+]([O-])c1ccc(Sc2cccc3cccnc23)c2cccnc12,"inconclusive: 3.16 µM [inhibitor, full curve, poor fit]",–
CN1C(=O)C(O)(CC(=O)/C=C/C=C/c2ccccc2)c2ccccc21 (configuration not stated),–,inactive: -5.77%
O=C(CSc1ccc(F)cc1)N1CCN(S(=O)(=O)c2ccccc2)CC1,"inconclusive: 0.398 µM [inhibitor, partial curve, poor fit]",–
O=C(Nc1ccc(F)c(Cl)c1)c1cccnc1,"inconclusive: 5.62 µM [inhibitor, single point]",–
CC(/C=C1\SC(=S)N(CCCC(=O)Nc2ccc(C(=O)O)c(O)c2)C1=O)=C\c1ccccc1,active: 39.8 µM,–
